Experimental data reported in US20190194291A1 (Hoffmann-La Roche, published 2019).
Several values for one entry are separate records, joined by “and”; a condition that tells them apart may be missing. Equal values may be shown once.

T1: human CD19 on cells (human, UniProt P15391 20-556)
T1 construct: also called CD19-expressing tumor cells WSU-DLCL2; OCI-Ly18
T1 sequence: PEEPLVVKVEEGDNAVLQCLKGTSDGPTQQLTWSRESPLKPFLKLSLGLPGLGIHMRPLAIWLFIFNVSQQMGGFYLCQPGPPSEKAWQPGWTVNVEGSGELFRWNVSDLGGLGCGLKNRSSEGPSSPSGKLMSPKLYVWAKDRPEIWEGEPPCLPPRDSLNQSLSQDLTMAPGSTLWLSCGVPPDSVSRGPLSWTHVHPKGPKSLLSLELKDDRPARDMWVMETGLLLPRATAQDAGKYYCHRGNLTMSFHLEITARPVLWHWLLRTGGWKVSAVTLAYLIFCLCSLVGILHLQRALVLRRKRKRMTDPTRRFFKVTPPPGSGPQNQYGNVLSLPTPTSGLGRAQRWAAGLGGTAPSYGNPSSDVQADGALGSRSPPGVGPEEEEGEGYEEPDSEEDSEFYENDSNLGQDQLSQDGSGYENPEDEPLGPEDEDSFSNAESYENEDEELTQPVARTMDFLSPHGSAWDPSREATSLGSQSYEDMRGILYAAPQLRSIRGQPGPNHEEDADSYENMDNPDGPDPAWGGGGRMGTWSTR


What was measured:
[1] = target: T2, human 4-1BB (CD137) on cells (human, UniProt Q07011 24-255); experiment: cell-based or functional assay
human CD19 on cells = target: T1, human CD19 on cells; experiment: flow cytometry on CD19+ WSU-DLCL2 cells, PE anti-human IgG detection
[2] = target: T2, human 4-1BB (CD137) on cells; experiment: flow cytometry on activated human PBMCs (anti-CD3/anti-CD28 beads, 48 h), gated on CD4 T cells
[3] = target: T2, human 4-1BB (CD137) on cells; experiment: flow cytometry on activated human PBMCs (anti-CD3/anti-CD28 beads, 48 h), gated on CD8 T cells

Nalm6 EC50 [nM] (NFkB luciferase reporter assay with 4-1BB HeLa cells and CD19-expressing cells) [1]	OCI-Ly18 EC50 [nM] (NFkB luciferase reporter assay with 4-1BB HeLa cells and CD19-expressing cells) [1]	SU-DHL-8 EC50 [nM] (NFkB luciferase reporter assay with 4-1BB HeLa cells and CD19-expressing cells) [1]	EC50 (human CD19 on cells)	EC50 [2]	EC50 [3]	Binder
0.03	0.03	0.03	–	–	–	monovalent CD19(8B8-018) targeted split trimeric 4-1BB ligand (71-248) Fc (kih) fusion antigen binding molecule with crossed CH-CL and charged residues … (Fc fusion) chain 1: REGPELSPDDPAGLLDLRQGMFAQLVAQNVLLIDGPLSWYSDPGLAGVSLTGGLSYKEDTKELVVAKAGVYYVFFQLELRRVVAGEGSGSVSLALHLQPLRSAAGAAALALTVDLPPASSEARNSAFGFQGRLLHLSAGQRLGVHLHTEARARHAWQLTQGATVLGLFRVTPEIPAGLGGGGSGGGGSREGPELSPDDPAGLLDLRQGMFAQLVAQNVLLIDGPLSWYSDPGLAGVSLTGGLSYKEDTKELVVAKAGVYYVFFQLELRRVVAGEGSGSVSLALHLQPLRSAAGAAALALTVDLPPASSEARNSAFGFQGRLLHLSAGQRLGVHLHTEARARHAWQLTQGATVLGLFRVTPEIPAGLGGGGSGGGGSRTVAAPSVFIFPPSDRKLKSGTASVVCLLNNFYPREAKVQWKVDNALQSGNSQESVTEQDSKDSTYSLSSTLTLSKADYEKHKVYACEVTHQGLSSPVTKSFNRGE[human IgG1 Fc with changes omitted here] chain 2: REGPELSPDDPAGLLDLRQGMFAQLVAQNVLLIDGPLSWYSDPGLAGVSLTGGLSYKEDTKELVVAKAGVYYVFFQLELRRVVAGEGSGSVSLALHLQPLRSAAGAAALALTVDLPPASSEARNSAFGFQGRLLHLSAGQRLGVHLHTEARARHAWQLTQGATVLGLFRVTPEIPAGLGGGGSGGGGSASTKGPSVFPLAPSSKSTSGGTAALGCLVEDYFPEPVTVSWNSGALTSGVHTFPAVLQSSGLYSLSSVVTVPSSSLGTQTYICNVNHKPSNTKVDEKVEPKSC heavy: QVQLVQSGAEVKKPGASVKVSCKASGYTFTDYIMHWVRQAPGQGLEWMGYINPYNDGSKYTEKFQGRVTMTSDTSISTAYMELSRLRSDDTAVYYCARGTYYYGSALFDYWGQGTTVTVSSASTKGPSVFPLAPSSKSTSGGTAALGCLVKDYFPEPVTVSWNSGALTSGVHTFPAVLQSSGLYSLSSVVTVPSSSLGTQTYICNVNHKPSNTKVDKKVEPKSCDKTHTCPPCPAPEAAGGPSVFLFPPKPKDTLMISRTPEVTCVVVDVSHEDPEVKFNWYVDGVEVHNAKTKPREEQYNSTYRVVSVLTVLHQDWLNGKEYKCKVSNKALGAPIEKTISKAKGQPREPQVCTLPPSRDELTKNQVSLSCAVKGFYPSDIAVEWESNGQPENNYKTTPPVLDSDGSFFLVSKLTVDKSRWQQGNVFSCSVMHEALHNHYTQKSLSLSPGK light: DIVMTQTPLSLSVTPGQPASISCKSSQSLENPNGNTYLNWYLQKPGQSPQLLIYRVSKRFSGVPDRFSGSGSGTDFTLKISRVEAEDVGVYYCLQLTHVPYTFGQGTKLEIKRTVAAPSVFIFPPSDEQLKSGTASVVCLLNNFYPREAKVQWKVDNALQSGNSQESVTEQDSKDSTYSLSSTLTLSKADYEKHKVYACEVTHQGLSSPVTKSFNRGEC
0.02	0.03	0.03	0.17 nM and 0.03 µg/mL	0.11 nM and 0.02 µg/mL	0.05 µg/mL and 0.28 nM	monovalent CD19-targeted 4-1BB ligand (71-254) trimer-containing Fc (kih) fusion antigen binding molecule (Construct 4.1) (Fc fusion, also called positive control construct 4.1) chain 1: [about 200 residues omitted here]GGGGSGGGGSREGPELSPDDPAGLLDLRQGMFAQLVAQNVLLIDGPLSWYSDPGLAGVSLTGGLSYKEDTKELVVAKAGVYYVFFQLELRRVVAGEGSGSVSLALHLQPLRSAAGAAALALTVDLPPASSEARNSAFGFQGRLLHLSAGQRLGVHLHTEARARHAWQLTQGATVLGLFRVTPEIPAGLPSPRSEGGGGSGGGGSRTVAAPSVFIFPPSDRKLKSGTASVVCLLNNFYPREAKVQWKVDNALQSGNSQESVTEQDSKDSTYSLSSTLTLSKADYEKHKVYACEVTHQGLSSPVTKSFNRGE[human IgG1 Fc with changes omitted here] chain 2: [about 200 residues omitted here][about 120 residues omitted here] heavy: QVQLVQSGAEVKKPGASVKVSCKASGYTFTDYIMHWVRQAPGQGLEWMGYINPYNDGSKYTEKFQGRVTMTSDTSISTAYMELSRLRSDDTAVYYCARGTYYYGPQLFDYWGQGTTVTVSSASTKGPSVFPLAPSSKSTSGGTAALGCLVKDYFPEPVTVSWNSGALTSGVHTFPAVLQSSGLYSLSSVVTVPSSSLGTQTYICNVNHKPSNTKVDKKVEPKSCDKTHTCPPCPAPEAAGGPSVFLFPPKPKDTLMISRTPEVTCVVVDVSHEDPEVKFNWYVDGVEVHNAKTKPREEQYNSTYRVVSVLTVLHQDWLNGKEYKCKVSNKALGAPIEKTISKAKGQPREPQVCTLPPSRDELTKNQVSLSCAVKGFYPSDIAVEWESNGQPENNYKTTPPVLDSDGSFFLVSKLTVDKSRWQQGNVFSCSVMHEALHNHYTQKSLSLSPGK light: DIVMTQTPLSLSVTPGQPASISCKSSQSLETSTGTTYLNWYLQKPGQSPQLLIYRVSKRFSGVPDRFSGSGSGTDFTLKISRVEAEDVGVYYCLQLLEDPYTFGQGTKLEIKRTVAAPSVFIFPPSDEQLKSGTASVVCLLNNFYPREAKVQWKVDNALQSGNSQESVTEQDSKDSTYSLSSTLTLSKADYEKHKVYACEVTHQGLSSPVTKSFNRGEC
0.03	0.03	0.03	0.38 nM and 0.06 µg/mL	0.13 nM and 0.02 µg/mL	0.06 µg/mL and 0.38 nM	monovalent CD19(8B8-018)-targeted 4-1BB ligand (71-248) trimer-containing Fc (kih) fusion antigen binding molecule (Construct 3.11) (Fc fusion, Human IgG1 Fc knob-into-hole with P329G, L234A, L235A; one CD19(8B8-018) Fab on the knob chain) DKTHTCPPCPAPEAAGGPSVFLFPPKPKDTLMISRTPEVTCVVVDVSHEDPEVKFNWYVDGVEVHNAKTKPREEQYNSTYRVVSVLTVLHQDWLNGKEYKCKVSNKALGAPIEKTISKAKGQPREPQVCTLPPSRDELTKNQVSLSCAVKGFYPSDIAVEWESNGQPENNYKTTPPVLDSDGSFFLVSKLTVDKSRWQQGNVFSCSVMHEALHNHYTQKSLSLSPGGGGGSGGGGSREGPELSPDDPAGLLDLRQGMFAQLVAQNVLLIDGPLSWYSDPGLAGVSLTGGLSYKEDTKELVVAKAGVYYVFFQLELRRVVAGEGSGSVSLALHLQPLRSAAGAAALALTVDLPPASSEARNSAFGFQGRLLHLSAGQRLGVHLHTEARARHAWQLTQGATVLGLFRVTPEIPAGLGGGGSGGGGSREGPELSPDDPAGLLDLRQGMFAQLVAQNVLLIDGPLSWYSDPGLAGVSLTGGLSYKEDTKELVVAKAGVYYVFFQLELRRVVAGEGSGSVSLALHLQPLRSAAGAAALALTVDLPPASSEARNSAFGFQGRLLHLSAGQRLGVHLHTEARARHAWQLTQGATVLGLFRVTPEIPAGL heavy: QVQLVQSGAEVKKPGASVKVSCKASGYTFTDYIMHWVRQAPGQGLEWMGYINPYNDGSKYTEKFQGRVTMTSDTSISTAYMELSRLRSDDTAVYYCARGTYYYGSALFDYWGQGTTVTVSSASTKGPSVFPLAPSSKSTSGGTAALGCLVKDYFPEPVTVSWNSGALTSGVHTFPAVLQSSGLYSLSSVVTVPSSSLGTQTYICNVNHKPSNTKVDKKV[human IgG1 Fc with changes omitted here]GGGGSGGGGSREGPELSPDDPAGLLDLRQGMFAQLVAQNVLLIDGPLSWYSDPGLAGVSLTGGLSYKEDTKELVVAKAGVYYVFFQLELRRVVAGEGSGSVSLALHLQPLRSAAGAAALALTVDLPPASSEARNSAFGFQGRLLHLSAGQRLGVHLHTEARARHAWQLTQGATVLGLFRVTPEIPAGL light: DIVMTQTPLSLSVTPGQPASISCKSSQSLENPNGNTYLNWYLQKPGQSPQLLIYRVSKRFSGVPDRFSGSGSGTDFTLKISRVEAEDVGVYYCLQLTHVPYTFGQGTKLEIKRTVAAPSVFIFPPSDEQLKSGTASVVCLLNNFYPREAKVQWKVDNALQSGNSQESVTEQDSKDSTYSLSSTLTLSKADYEKHKVYACEVTHQGLSSPVTKSFNRGEC
